The whole screen tested about 410,000 compounds, of which about 5,000 (1.2%) were called active. Inconclusive means that the source gave no clear call. Such entries were picked first, then a sample of the others. The call rests on the fitted dose curve; in most records, active means well fitted inhibition curve with a large enough effect; inconclusive means small, poorly fitted or top-dose-only effect; inactive means no such curve, though single readings can be large or run the other way. Potencies of inconclusive entries are doubtful fits and often do not repeat.
Assay: qHTS for Inhibitors of TGF-b; further: nearly all actives have a fitted effect of over 65% in size
Conditions: HepG2 CAGA-GFP TGF-b/SMAD3 reporter, GFP fluorescence, 18 h, TGF-beta stimulated, 500 pg/mL final; series mostly up to 46.1 µM
In short: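 HEPG2 CAGA-GFP, 1000 cells/well; 2 h settle, 37 C; cpd via pin tool; TGF-b 500 pg/mL final; 18 h, 37 C; GFP imaging ex488/em500-530; %Activity normalised to -TGF-b and +DMSO controls; CRC fit, curve class.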
For Cc1c(Cl)cccc1NC(=O)COC(=O)Cn1cnc2c1c(=O)n(C)c(=O)n2C, the Potency was “inactive”.
For CCc1c(C#N)c(SCCC(=O)Nc2ccc(OC)cc2)nc2c1C(=O)CC(C)(C)C2, the Potency was “inactive”.
For Cc1ccc(OCC(=O)Nc2ccc(O)c(-c3nc4cc(C)c(C)cc4o3)c2)cc1, the Potency was “inactive”.
With CCC(C)(C)n1nnnc1C(c1cccnc1)N1CCC(Cc2ccccc2)CC1 (configuration not stated) the Potency was inconclusive: 22.4 µM [inhibitor, single point].
For Cc1cc(C)nc(SCCCNCc2ccc(Br)cc2)n1, the Potency was inconclusive: 14.1 µM [inhibitor, single point].
For COc1ccc2nc3c(cc2c1)c(NC(=O)c1cccs1)nn3CC(C)C, the Potency was inconclusive: 0.708 µM [inhibitor, full curve].
In the case of CC(C)C1N(c2ccccc2)C(N)=C(C#N)C1(C#N)C#N (configuration not stated), the Potency is reported as “inactive”.
With Cc1cccc(NC(=O)c2cc(S(=O)(=O)N(C)c3ccc(F)cc3)ccc2Cl)n1 the Potency was “inactive”.
With Cc1nc(-c2ccc(C)c(N3CCN(C(=O)Nc4ccccc4C(F)(F)F)CC3)c2)no1 the Potency was “inactive”.
With CN(Cc1ccco1)C(=O)c1ccc(CNS(=O)(=O)c2ccc3c(c2)C(C)(C)C(=O)N3C)cc1 the Potency was “inactive”.
In the case of COCCNC(=S)NCCc1ccc(Cl)cc1Cl, the Potency is reported as inconclusive: 28.2 µM [inhibitor, single point].
With N#C/C(=C\c1ccc[nH]1)C(=O)Nc1ccccc1F the Potency was inconclusive: 6.31 µM [inhibitor, partial curve, poor fit].
For COc1ccc(OC)c(S(=O)(=O)N2CCN(CC(O)COc3ccc(C#N)cc3)CC2)c1 (configuration not stated), the Potency was inconclusive: 22.4 µM [inhibitor, partial curve].
With O=C(CN1CCN(c2ccccn2)CC1)Nc1ccc([N+](=O)[O-])cc1C(=O)Nc1ccccc1F the Potency was inconclusive: 0.1 µM [inhibitor, full curve, poor fit].
For COc1ccc(-c2sc3cc4c(cc3c2C#CC2(N)CCCCC2)OCO4)cc1, the Potency was inconclusive: 35.5 µM [inhibitor, single point].
In the case of COc1ccccc1N1CCN(S(=O)(=O)CCNC(=O)C2CCCCC2)CC1, the Potency is reported as “inactive”.
In the case of COc1cc([N+](=O)[O-])cc(/C=N/NC(=O)C(C)Nc2cccc3ccccc23)c1O (configuration not stated), the Potency is reported as inconclusive: 35.5 µM [inhibitor, single point].
With N#CC1=C(N)SC2(CCCCC2)SC1c1ccccc1 (configuration not stated) the Potency was “inactive”.
In the case of CCN1C(=O)[C@H]2[C@H]3CN=C(SCc4ccc(Cl)cc4)N3[C@@](Cc3ccccc3)(C(=O)OC)[C@H]2C1=O, the Potency is reported as inconclusive: 15.8 µM [inhibitor, single point].
In the case of COc1cccc(-c2ccc(CN3C(C)C(=O)N(Cc4cn(Cc5ccco5)nn4)CCS3(=O)=O)cc2)c1OC (configuration not stated), the Potency is reported as inconclusive: 20 µM [inhibitor, single point].
For CCn1cc(CNCc2ccc(OCC(O)CN(C)Cc3ccccc3)cc2)cn1 (configuration not stated), the Potency was “inactive”.
For CCCOc1ccc(F)cc1-c1cc(C(=O)Nc2ccc(C)c(NS(C)(=O)=O)c2)[nH]n1, the Potency was active: 17.8 µM.
For Clc1ccc(OCc2nn3c(-c4ccco4)nnc3s2)c(Cl)c1, the Potency was inconclusive: 3.16 µM [inhibitor, partial curve].
In the case of c1ccc(N/N=C(\Cc2nc3ccccc3[nH]2)c2ccccc2)cc1, the Potency is reported as “inactive”.
With COC(=O)C(C(=O)OC)C(C(C)C)C(C(=O)OC)C(=O)OC the Potency was inconclusive: 1 µM [inhibitor, partial curve, poor fit].
For O=C(Nc1ccc2nsnc2c1)N1CCCCCC1, the Potency was “inactive”.
For Brc1csc(CN2CCc3nc(Nc4ccccc4)ncc3C2)c1, the Potency was active: 12.6 µM.
For Cc1cccc(Cn2c(SCc3ccc(C(=O)N4CCCCCC4)cc3)nc3ccncc32)c1, the Potency was active: 12.6 µM.
In the case of CC1(C)CN2C(=S)N(c3ccccc3)C(c3ccccc3)N2C1 (configuration not stated), the Potency is reported as inconclusive: 15.8 µM [inhibitor, single point].
In the case of Cn1c(N)c(C(=O)COC(=O)COc2cc(Cl)c(Cl)cc2Cl)c(=O)n(C)c1=O, the Potency is reported as “inactive”.
With COc1ccc(C2c3ccc4ccccc4c3Oc3ncn(CCCN(C)C)c(=N)c32)cc1 (configuration not stated) the Potency was inconclusive: 35.5 µM [inhibitor, single point].
For Cn1c(NCc2ccncc2)nc2cc(-c3ccsc3)sc2c1=O, the Potency was inconclusive: 6.31 µM [inhibitor, single point].
With CC(=O)n1cc([C@@H]2C=C(C(=O)N3CCN(Cc4ccccc4)CC3)O[C@H](OCc3ccc(CO)cc3)C2)c2ccccc21 the Potency was inconclusive: 6.31 µM [inhibitor, full curve, poor fit].
With COc1cccc(NC(=O)c2ccc3c(O)c(S(=O)(=O)c4ccccc4)c(=O)[nH]c3c2)c1 the Potency was “inactive”.
For Cn1c(SCC(=O)c2ccc(O)c(O)c2)nnc1-c1ccccc1, the Potency was “inactive”.
With C=CCn1c[n+](CC(=O)c2ccc(Br)s2)c2ccccc21 the Potency was “inactive”.
In the case of CC(C)(C)c1ccc(-c2cc(-c3ccccc3O)[nH]n2)cc1, the Potency is reported as active: 17.8 µM.
For COc1cccc(NC(=O)CCNS(=O)(=O)c2ccc3c(c2)CC(C)N3C(=O)C2CC2)c1 (configuration not stated), the Potency was “inactive”.
In the case of CCOC(=O)c1c(Oc2ccc(C(=O)OC)cc2)nnc(-c2ccccc2)c1-c1ccccc1, the Potency is reported as “inactive”.
In the case of Cc1cc(C)cc(C(=O)N2CC(C)SC2=Nc2cccc(S(=O)(=O)N(C)C)c2)c1 (configuration not stated), the Potency is reported as “inactive”.
For CCN(C(=O)Cn1c(C(=O)OC)cc2oc3ccccc3c21)c1cccc(C)c1, the Potency was inconclusive: 22.4 µM [inhibitor, single point].
In the case of COc1cc(NC(=O)Cn2c(SCc3ccc(F)cc3)nc3cccnc32)cc(OC)c1, the Potency is reported as “inactive”.
For Cc1ccc(CCNC(=O)CCc2cn(Cc3ccccc3C)c3ccccc23)cc1, the Potency was inconclusive: 35.5 µM [inhibitor, single point].
For COc1ccc(OCC(=O)Nc2nc3c(s2)CCCC3)cc1, the Potency was “inactive”.
In the case of CC(=C/c1ccccc1)/C=N/n1c(-c2ccco2)n[nH]c1=S, the Potency is reported as “inactive”.
With CCN1CCN(c2nc3c(c(=O)[nH]c(=O)n3C)n2Cc2ccccc2)CC1 the Potency was “inactive”.
For Cc1cc(C)cc(-n2cnc3cc(C(=O)NCCc4ccccc4)ccc32)c1, the Potency was inconclusive: 35.5 µM [inhibitor, single point].
With O=C(Nc1ccccc1)Nc1ccccc1Br the Potency was “inactive”.
In the case of C=CCn1c(SCC(=O)Nc2sc3c(c2C#N)CCC3)nnc1C1COc2ccccc2O1 (configuration not stated), the Potency is reported as inconclusive: 11.2 µM [inhibitor, partial curve].
With COc1ccccc1Nc1c2c(nc3ccc(NC(=O)/C=C/c4cccc(OC)c4OC)cc13)CCCC2 the Potency was inconclusive: 6.31 µM [inhibitor, full curve, poor fit].
With CCCCCc1ccc(OCCCC[n+]2ccc(C)cc2)c(CCCCC)c1 the Potency was active: 11.2 µM.
With COc1ccc2nc(N(Cc3cccnc3)C(=O)CCc3ccccc3)sc2c1 the Potency was inconclusive: 22.4 µM [inhibitor, single point].
With Cc1noc(C)c1-c1nnc(-c2ccc(C(F)(F)F)cc2)o1 the Potency was “inactive”.
With COc1ccc2oc(C(=O)OC(C)C(=O)NC3(C#N)CCCCC3)c(C)c2c1 (configuration not stated) the Potency was inconclusive: 35.5 µM [inhibitor, single point].
In the case of CCNC(=O)Cn1cc(C#N)c2ccccc21, the Potency is reported as inconclusive: 0.562 µM [inhibitor, full curve, poor fit].
For COc1cc(CNc2ccc3c(c2)CCC3)cc(OC)c1O, the Potency was “inactive”.
In the case of CN1CCN(c2ccc(-c3cc(NC=O)c4ncc(-c5ccc(F)c(Cl)c5)n4c3)cc2)CC1, the Potency is reported as active: 20 µM.
In the case of CCOc1ccc(NC(=O)CN2CCCC2c2cccs2)cc1S(=O)(=O)N1CCCCC1 (configuration not stated), the Potency is reported as inconclusive: 14.1 µM [inhibitor, partial curve, poor fit].
With CCOC(=O)c1c(C)[nH]c(C(=O)OCC(=O)Nc2cc(Cl)ccc2OC)c1C the Potency was inconclusive: 20 µM [inhibitor, single point].
In the case of COc1ccccc1-n1cc(-c2ccc(C)cc2)nc1S(=O)(=O)CC(=O)Nc1ccccc1C(F)(F)F, the Potency is reported as inconclusive: 12.6 µM [inhibitor, single point].
In the case of CC(=O)C1CCC2C3CCC4CC(=O)CCC4(C)C3C=CC12C (configuration not stated), the Potency is reported as “inactive”.
In the case of O=C(CSc1ccc(Cl)cc1)Nn1cnnc1, the Potency is reported as “inactive”.
For Cc1cc(C(=O)N/N=C/c2ccc([N+](=O)[O-])s2)c2ccccc2n1, the Potency was active: 10 µM.
For Cc1ccc(C(=O)OCC(=O)NCc2ccccc2)cc1S(=O)(=O)N1CCCCC1, the Potency was “inactive”.
For CCc1ccc2c(c1)c1nnc(NN)nc1n2CC, the Potency was inconclusive: 35.5 µM [inhibitor, single point].
For N#Cc1ccc(NC(=S)NC(=O)C2CCCCC2)cc1, the Potency was inconclusive: 35.5 µM [inhibitor, single point].
With COc1ccc(NS(=O)(=O)c2cc(NC(=O)Cc3n[nH]c(=O)c4ccccc34)ccc2OC)cc1 the Potency was inconclusive: 35.5 µM [inhibitor, single point].
For CCOC(=O)c1sc(NC(=O)c2c(C)nn(Cc3ccccc3)c2C)cc1C, the Potency was inconclusive: 25.1 µM [inhibitor, single point].
For O=C(NC(Cc1c[nH]c2ccccc12)C(=O)N/N=C/c1ccc(Br)cc1)c1cccs1 (configuration not stated), the Potency was inconclusive: 35.5 µM [inhibitor, single point].
For COc1ccc(NS(=O)(=O)c2ccc(-c3coc(C)n3)cc2)c(OC)c1, the Potency was inconclusive: 12.6 µM [inhibitor, single point].
With COC(=O)c1cnc(Nc2nc(C(N)Cc3ccccc3)cs2)nc1C(F)(F)F (configuration not stated) the Potency was inconclusive: 35.5 µM [inhibitor, partial curve, poor fit].
With CN1CCN(c2ccc(NC(=O)c3ccc(-c4ccc(Cl)cc4)o3)cc2)CC1 the Potency was inconclusive: 25.1 µM [inhibitor, single point].

From PubChem BioAssay AID588855 (National Center for Advancing Translational Sciences (NCATS), 2011)
Potency means the concentration at half of the fitted maximal effect; tags describe the fitted curve by direction and shape.
